Results as given in PubChem BioAssay AID743279 (National Center for Advancing Translational Sciences (NCATS), 2014).
Out of some 360,000 compounds screened, about 17,000 (4.7%) were called active. The inconclusive results got no clear call from the source; some entries with a clear call stand among them for comparison. Cut-off read from the data, not from the text of the source: active = activity change below about -50%; inconclusive = mostly about -30% to -49%; inactive = weaker than that.

Test: qHTS for Inhibitors of Inflammasome Signaling: IL-1-beta AlphaLISA Primary Screen
Conditions: THP-1 LPS/ATP IL-1B secretion, 16 h, at 57.5 µM, stronger effect = lower value
Text: Inflammasomes are a set of intracellular multi-protein complexes that enable autocatalytic activation of inflammatory caspases and drive the innate immune response to counter harmful agents. […] A qHTS assay, based on AlphaLISA technology, was developed to screen the Molecular Libraries Small Molecule Repository (MLSMR) to look for novel inflammasome inhibitors. The assay detects IL-1B using AlphaLISA anti-IL-1B acceptor and donor beads. A decreased emission signal, indicating reduced IL-1B secretion, is the desired outcome for this assay. NIH Chemical Genomics Center [NCGC] NIH Molecular Libraries Probe Centers Network [MLPCN] MLPCN Grant: MH095513 Assay Provider: Shyam Biswal Ph.D., Johns Hopkins University Immunity. 2012 Jul 27;37(1):85-95. PMID: 22819042 [2] Curr Pharm Des. 2012;18(16):2320-8. PMID: 22390695
Three microliters containing 3000 THP-1 cells were dispensed into the wells of solid, white, tissue culture treated Greiner 1,536-well plates. Library compounds and positive control, Glyburide, were pin-transferred (23 nL) by a Kalypsys pin-tool equipped with a 1,536-pin array, resulting in final compound concentration ranges of 2.5 nM to 57.5 uM. After 1 hr of cell culture incubation (37 °C, 5% CO2), 1 microL of 1 microg/mL lipopolysaccharide (250 ng/mL, final) and 5 mM ATP (1.25 mM, final) were added to stimulate the cells. After 16 hr of cell culture incubation with the compounds, 1.5 uL of anti-IL-1B acceptor beads (6 ug/mL, final) and biotinylated antibody (0.6 nM, final) were added to the plate, followed by a 1 hr incubation at ambient temperature. To detect the secreted IL-1B, 1.5 uL of AlphaLISA SA-Donor beads (24 ug/mL, final) were added, followed by 30 min of incubation in the dark at ambient temperature. The AlphaLISA signal was read by a PerkinElmer EnVision plate reader with an ultrasensitive luminescence detector and 1536 Plate HTS AlphaScreen aperture (excitation of 680nm and emission of 615nm).
% is set by controls: 0 for no effect and ±100 for the full control effect.

With `CCOC(=O)[C@]12Cc3cc(OC)ccc3[C@H]1N(C(C)C)C(=O)c1ccccc12` as the molecule, how does the activity change read?
The activity change was active: -125%.

Which activity change does the source give for `COc1ccc(CCN(C)Cc2c(F)cccc2F)cc1OC` here?
The activity change was inactive: -4.17%.

With `CCN1C(=O)N(CC)C(=O)C2(Cc3ccccc3N3CCN(c4ccccc4)CC32)C1=O` (stereo unspecified) as the molecule, how does the activity change read?
Its activity change is inactive: 33.3%.

With `NC(Cc1ccc(Cl)cc1)c1csc(Nc2cnccn2)n1` (stereo unspecified) as the molecule, how does the activity change read?
Its activity change is inconclusive: -45.8%.

With `CCOC(=O)[C@]12Cc3ccccc3[C@H]1N(C)C(=O)c1cc(OC)ccc12` as the molecule, how does the activity change read?
The activity change was active: -116%.

Which activity change does the source give for `CCC(C)OC(=O)c1c(N)n(Cc2cccs2)c2nc3ccccc3nc12` (stereo unspecified) here?
Its activity change is inconclusive: -33.8%.

With `CC12CC[C@H]3[C@@H](CCC4(O)C[C@H](O)CCC34/C=N/NC(=O)c3ccccc3[N+](=O)[O-])C1(O)CCC2C1=CC(=O)OC1` (stereo partly specified) as the molecule, how does the activity change read?
The activity change was inconclusive: -37%.

Which activity change does the source give for `CCN(CC)C(=O)c1ccc(NC(=O)c2cccc(C(F)(F)F)c2)cc1` here?
The activity change was inconclusive: -34.9%.

For `COC(=O)C1=C(c2ccc(F)cc2OCc2ccccc2)C[C@@H]2CC[C@H]1N2C(=O)NCCOc1ccccc1`, which activity change is on record?
Its activity change is inconclusive: -40.3%.

With `CC1=CC2OC3CC4OC(=O)C=CC=CC(C(C)O)OCC(O)C(C)CC(=O)OCC2(CC1O)C4(C)C31CO1` (stereo unspecified) as the molecule, how does the activity change read?
Its activity change is active: -116%.

With `COc1ccc(C(c2nnnn2-c2ccc3c(c2)OCCO3)N2CCC(n3c(=O)[nH]c4ccccc43)CC2)cc1` (stereo unspecified) as the molecule, how does the activity change read?
The activity change was inconclusive: -30.1%.

With `S=P(Nn1cnnc1)(c1ccc(Br)cc1)c1ccc(Br)cc1` as the molecule, how does the activity change read?
The activity change was inconclusive: -37.3%.

For `CN(C)CCN(CC1CCCN(Cc2ccccc2F)C1)C(=O)Cc1ccc(F)c(F)c1` (stereo unspecified), which activity change is on record?
Its activity change is inconclusive: -41.2%.

Which activity change does the source give for `O=Cc1cn(Cc2ccccc2F)c2ccccc12` here?
The activity change was inconclusive: -36.1%.

For `CCc1ccc(N2C(=O)NC(=O)/C(=C/c3cccn3CCOc3ccc(C(C)CC)cc3)C2=O)cc1` (stereo unspecified), which activity change is on record?
The activity change was inactive: -27.7%.

For `CCOC(=O)c1c(N)n(CCN2CCCCC2)c2nc3ccccc3nc12`, which activity change is on record?
The activity change was active: -83.4%.

Which activity change does the source give for `Cc1ccccc1CC(=O)N(CCN(C)C)CC1CCCN(Cc2ccccc2F)C1` (stereo unspecified) here?
Its activity change is inconclusive: -39.6%.

For `COc1ccc(-c2ccc3c(c2)CN(CC(C)C)Cc2cnnn2-3)cc1`, which activity change is on record?
Its activity change is inconclusive: -39.8%.

With `COC(=O)C1=C(c2ccc(OC(F)(F)F)cc2)C[C@@H]2CC[C@H]1N2C(=O)NCCOc1ccccc1Cl` as the molecule, how does the activity change read?
The activity change was active: -58.4%.

With `CN(C)c1ccc(C(=O)N/N=C/C23CC[C@@H](O)CC2(O)CC[C@@H]2[C@@H]3CCC3(C)C(C4=CC(=O)OC4)CCC23O)cc1` (stereo partly specified) as the molecule, how does the activity change read?
Its activity change is inconclusive: -48.6%.

For `Cc1cccc(C)c1-n1nnnc1C(c1ccccc1)N1CCC2(CC1)C(=O)NCN2c1ccccc1` (stereo unspecified), which activity change is on record?
Its activity change is inconclusive: -41.7%.
